# Experimental data taken from the supplement of paper PMC11417369.
# ± gives the standard deviation of the averaged measurements. Some of the results follow.
# Tested on: PfAP2-EXP AP2 domain (GST-tagged)
# Experiment: gcPBM binding intensity (ln(normalized median fluorescence intensity)); higher = stronger DNA binding
# Procedure, shortened: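 Using an Agilent 4 × 180k array, primer-extended double-stranded 36-bp intergenic genomic probes and negative controls were exposed for 1 h to GST-fused P. falciparum DNA-binding domains expressed in E. coli. Binding was carried out in 1× PBS with 1% milk, 0.2 mg/ml BSA, 0.5% salmon testes DNA and 0.03% Triton X-100, and protein was detected with Alexa488 anti-GST antibody and a 488 nm scan. Binding intensity is the highest Masliner-normalised natural-log median intensity across replicate spots of either probe orientation.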
row,Sequence,gcPBM binding intensity (ln)
1,AAAAAAAAAAAAAGTGCACACATAAAAATATGATCT [CACACA_site8090],8.85 ± 0.18
2,TACAAATTTATATAAAGTACAAAAAATAATAAAAAT [XGTACX_site7355],8.92 ± 0.52
3,TCAAATAATAAGTATGCATGCTATATTTATATATAC [TGCATGCA_site920],9.02 ± 0.18
4,AAACGTACATAATACACACACATGTATACCTATAAA [CACACA_site7051],8.71 ± 0.3
5,TACATTTTACTTGTTACACACATATAAAATTAACCA [CACACA_site2922],8.32 ± 0.12
6,AGTTAATGAATAGGCACACATATATCTGTATAAATA [CACACA_site4448],8.63 ± 0.34
7,AGAAAAAAAAAAAGTACACACATATAATATATATAT [CACACA_site2973],9.38 ± 0.2
8,CATATTGAATATTTAACACACATTTCGCTTAATTCA [CACACA_site2086],8.54 ± 0.4
9,ACACATTATAAAACTGTCGCTCATAAAGAAGAATGA [CACACA_negctrl_site999],8.75 ± 0.44
10,GCAACAAAAAATCAGACATGCATTTTAAAATGAATA [TGCATGCA_site846],8.62 ± 0.2
11,GAATGAATTGTTATTAGTACACATGTGAATTATAAA [XGTACX_site6790],8.64 ± 0.36
12,TTATATATAAAATACTGTACATTTAATTGATGGTTT [XGTACX_site2073],8.41 ± 0.45
13,TATAAAAAAAAAATTTGTACATAATAATATATATAT [XGTACX_site2074],9.23 ± 0.2
14,TATATAAATTTAATAACACACATATAAAAATGAATT [CACACA_site2366],8.62 ± 0.58
15,AAAAAGCAGGATTATACACACAAATATATATATGTT [CACACA_site1077],8.35 ± 0.36
16,TTTTATAATAAGTATGTAAAAATTATATATATATAT [CACACA_negctrl_site711],10.1 ± 0.36
17,AACTTGTATATATACACACACACACTATCTTTTTTT [CACACA_site8601],8.86 ± 0.38
18,ATATATATATAACATTGTACACACAAAGAAATAATA [XGTACX_site6440],9.67 ± 0.16
19,ATATGTTTACGTAAATGTACACGTCAGTATATTTCT [XGTACX_site8199],8.66 ± 0.35

row,Sequence,gcPBM binding intensity (ln)
1,ATTTTTTTTTTTTTTATTCCCCTTTCGAAAAAAACC [CACACA_negctrl_site1139],8.88 ± 0.47
2,CTTTTATATGTCTAATGTACGGGCAATATAAATTTG [XGTACX_site8323],8.45 ± 0.45
3,AAAAAAAAAAAAAAAAAAATATATTATATATATATA [XGTACX_negctrl_site467],9.9 ± 0.071
4,TATTTTTTTAAGTGCAGTACACTTAATTTCCCCCAA [XGTACX_site7328],8.92 ± 0.14
5,ATTTTTTTTTTTTTTTTAAGACAAACTCTTAATTTA [CACACA_negctrl_site1389],8.16 ± 0.46
6,ATTCCAAAAAAATCAAGTACTAATTTATTATATTAC [XGTACX_site3920],8.26 ± 0.38
7,CGACAAAAATTTTACAGTACAGTATAAACCTTTTTA [XGTACX_site290],8.37 ± 0.39
8,TTTTTCACATTTCAGTGTACATTTTAATCATATATA [XGTACX_site915],8.63 ± 0.31
9,TACACACATTACAGATGTACATAAAATTAAAAAAAT [XGTACX_site1804],8.75 ± 0.49
10,TCAAAAAATATATTTGCACACTCAAAAAAAAAAAAA [CACACA_site860],8.32 ± 0.33
11,TATATATATATAAATACATGCATATAATTAATCCAT [TGCATGCA_site400],9.88 ± 0.29
12,ACAGGAGTATAACCTCGTACAAAATATATTTACCAT [XGTACX_site5805],8.78 ± 0.69
13,TCTTTAAAAAAAAAAAAAAAAAATTCCAAATAAATA [TGCATGCA_negctrl_site538],7.75 ± 0.5
14,CCTAGAAAAGCATATACACACGCGCAAAATAAAATT [CACACA_site4902],9.21 ± 0.58
15,TATATATATACATAATGTACAAGAATTTGTATTGAA [XGTACX_site627],8.97 ± 0.071
16,TAAAAATAAAGAAAATGTACATAAATAAAAATAAAG [XGTACX_site2279],8.93 ± 0.29
17,TTTATGTATTTTTATGCACACATGCGTGGCTTATAT [CACACA_site4374],9.01 ± 0.34
18,TACGGACATACTAACGGACACACGTAAGAAAAAAAA [CACACA_site602],8.74 ± 0.61
19,AATATTCGTAATTGATGTACTTGTAATTCATACATT [XGTACX_site8314],8.39 ± 0.31

row,Sequence,gcPBM binding intensity (ln)
1,TTTTTTTCAATATTTGCACACGATTATAATATTTAA [CACACA_site2237],8.79 ± 0.36
2,TTTATAATAAAATTTTTACACACTTTAAAAAAAAAA [CACACA_site8070],8.07 ± 0.37
3,CAGAATAATTTTATCGGTACACACTGTATGCATAAT [XGTACX_site736],8.8 ± 0.44
4,TATAATAAAAATAATACACACATATATAGCAATCGT [CACACA_site3241],8.87 ± 0.54
5,AATAAATATCTGTACACACACAAATAAATACATATC [CACACA_site5108],8.77 ± 0.3
6,CATAAAATATAAAACACACACACATATATATATATA [CACACA_site223],10.2 ± 0.44
7,TTCTGTATAATATAAAAACAAAAATTAAATTAAAAC [CACACA_negctrl_site81],8.51 ± 0.34
8,TATTATATAAATATACGTACATATACTAACCTTTTA [XGTACX_site6317],8.44 ± 0.3
9,TTCCATGTAGGACATGCATGCAGTTTTTAAAATATT [TGCATGCA_site481],10 ± 0.26
10,AAATTTTTTATTCTAATTAATATTTACACAATATAT [TGCATGCA_negctrl_site376],8.18 ± 0.36
11,TTTTATTAAAACCACGCATGCAGAGGAAACGGTGAG [TGCATGCA_site1029],9.78 ± 0.45
12,ATATATAATTTTTGCTGTACACAAAATATTAATTTA [XGTACX_site2057],8.64 ± 0.29
13,TATGACATATCCTGTAGTACAACGTATATATAAGAT [XGTACX_site1327],8.7 ± 0.22
14,AATAAAAATAATGAATGTACATATATATATACAATA [XGTACX_site3342],8.57 ± 0.47
15,ATATATAACGTGCACACACACATTTACGTATGAATA [CACACA_site6948],9.48 ± 0.23
16,ATTATATCATCTAAAACATGCACACATATGTACTCT [TGCATGCA_site949],8.91 ± 0.46
17,GTTGAGAAAATATGTGCATGTCAGGTTAAATTTTTA [TGCATGCA_site744],8.63 ± 0.33
18,TAAGATAAAAAAAATGCATGTTCTTATAATATTGTC [TGCATGCA_site939],9.03 ± 0.17
